# Laboratory results as given in the supplement of paper PMC8728848.
# The other results are listed elsewhere or left out.
# B1: MGL1 (Mus musculus), P49300 (protein)
# chain: MIYENLQNSRIEEKTQEPGKAPSQSFLWRILSWTHLLLFSLGLSLLLLVVVSVIGSQNSQLRRDLGTLRATLDNTTSKIKAEFQSLDSRADSFEKGISSLKVDVEDHRQELQAGRDLSQKVTSLESTVEKREQALKTDLSDLTDHVQQLRKDLKALTCQLANLKNNGSEVACCPLHWTEHEGSCYWFSESEKSWPEADKYCRLENSHLVVVNSLEEQNFLQNRLANVVSWIGLTDQNGPWRWVDGTDFEKGFKNWAPLQPDNWFGHGLGGGEDCAHITTGGPWNDDVCQRTFRWICEMKLAKES
# Assays:
# Experiment in all cases: glycan array binding signal (z-score within array); higher = stronger binding
# Conditions in all cases: glycan notation: IUPAC condensed, linker removed
# GalNAc(b1-6)GalNAc = target: GalNAc(b1-6)GalNAc
# Method in brief: (§1)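 The Consortium for Functional Glycomics database supplied 3228 glycan arrays, of which those lacking an available protein sequence were dropped. The binding signal, a within-array Z-score, was averaged across arrays of the same protein sequence and across linkers. Negative scores can be read as non-binding.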
# GalNAc3S(b1-4)GlcNAc = target: GalNAc3S(b1-4)GlcNAc
# Method in brief: as §1
# GalNAc3S(b1-4)GlcNAc3S = target: GalNAc3S(b1-4)GlcNAc3S
# Method in brief: as §1
# [1] = target: GalNAc3S(b1-4)[Fuc(a1-3)]GlcNAc
# Method in brief: as §1
# GalNAc4S6S(b1-4)GlcNAc = target: GalNAc4S6S(b1-4)GlcNAc
# Method in brief: as §1
# GalNAc6S(b1-4)GlcNAc = target: GalNAc6S(b1-4)GlcNAc
# Method in brief: as §1
# Glc(a1-4)Glc = target: Glc(a1-4)Glc
# Method in brief: as §1
# [2] = target: Glc(a1-4)Glc(a1-4)Glc(a1-4)Glc
# Method in brief: as §1
# Glc(a1-6)Glc(a1-6)Glc = target: Glc(a1-6)Glc(a1-6)Glc
# Method in brief: as §1
# [3] = target: Glc(a1-6)Glc(a1-6)Glc(a1-6)Glc
# Method in brief: as §1
# Glc(b1-4)Glc = target: Glc(b1-4)Glc
# Method in brief: as §1
# Glc(b1-6)Glc = target: Glc(b1-6)Glc
# Method in brief: as §1
# GlcA(b1-3)Gal = target: GlcA(b1-3)Gal
# Method in brief: as §1
# GlcA(b1-3)GlcNAc = target: GlcA(b1-3)GlcNAc
# Method in brief: as §1
# GlcA(b1-6)Gal = target: GlcA(b1-6)Gal
# Method in brief: as §1
# [4] = target: GlcA3S(b1-3)Gal(b1-4)GlcNAc(b1-2)Man
# Method in brief: as §1
# [5] = target: GlcA3S(b1-3)Gal(b1-4)GlcNAc(b1-3)Gal(b1-4)Glc
# Method in brief: as §1
# [6] = target: GlcNAc(a1-3)Gal(b1-4)GlcNAc
# Method in brief: as §1
# [7] = target: GlcNAc(a1-4)Gal(b1-3)GlcNAc
# Method in brief: as §1
# [8] = target: GlcNAc(a1-4)Gal(b1-4)GalNAc
# Method in brief: as §1
# [9] = target: GlcNAc(a1-4)Gal(b1-4)GlcNAc
# Method in brief: as §1
# [10] = target: GlcNAc(a1-4)Gal(b1-4)GlcNAc(b1-3)Gal(b1-4)Glc
# Method in brief: as §1
# [11] = target: GlcNAc(a1-4)Gal(b1-4)GlcNAc(b1-3)Gal(b1-4)GlcNAc
# Method in brief: as §1
# [12] = target: GlcNAc(a1-4)Gal(b1-4)GlcNAc(b1-3)Gal(b1-4)GlcNAc(b1-3)Gal(b1-4)GlcNAc
# Method in brief: as §1
# [13] = target: GlcNAc(a1-4)Gal(b1-4)GlcNAc(b1-3)Gal(b1-4)[Fuc(a1-3)]GlcNAc(b1-3)Gal(b1-4)[Fuc(a1-3)]GlcNAc
# Method in brief: as §1
# [14] = target: GlcNAc(a1-6)Gal(b1-4)GlcNAc
# Method in brief: as §1
# [15] = target: GlcNAc(b1-2)Gal(b1-3)GalNAc
# Method in brief: as §1
# [16] = target: GlcNAc(b1-2)Gal(b1-3)GlcNAc
# Method in brief: as §1
# [17] = target: GlcNAc(b1-2)Man(a1-3)[GlcNAc(b1-2)Man(a1-6)]Man(b1-4)GlcNAc(b1-4)GlcNAc
# Method in brief: as §1
# [18] = target: GlcNAc(b1-2)Man(a1-3)[GlcNAc(b1-2)Man(a1-6)]Man(b1-4)GlcNAc(b1-4)[Fuc(a1-6)]GlcNAc
# Method in brief: as §1
# [19] = target: GlcNAc(b1-2)Man(a1-3)[GlcNAc(b1-4)][GlcNAc(b1-2)Man(a1-6)]Man(b1-4)GlcNAc(b1-4)GlcNAc
# Method in brief: as §1
# [20] = target: GlcNAc(b1-2)Man(a1-3)[GlcNAc(b1-4)][GlcNAc(b1-2)Man(a1-6)]Man(b1-4)GlcNAc(b1-4)[Fuc(a1-6)]GlcNAc
# Method in brief: as §1
# [21] = target: GlcNAc(b1-2)[GlcNAc(b1-4)]Man(a1-3)[GlcNAc(b1-2)Man(a1-6)]Man(b1-4)GlcNAc(b1-4)GlcNAc
# Method in brief: as §1
# [22] = target: GlcNAc(b1-2)[GlcNAc(b1-4)]Man(a1-3)[GlcNAc(b1-4)][GlcNAc(b1-2)Man(a1-6)]Man(b1-4)GlcNAc(b1-4)GlcNAc
# Method in brief: as §1
# [23] = target: GlcNAc(b1-2)[GlcNAc(b1-4)]Man(a1-3)[GlcNAc(b1-4)][GlcNAc(b1-2)[GlcNAc(b1-6)]Man(a1-6)]Man(b1-4)GlcNAc(b1-4)GlcNAc
# Method in brief: as §1
# [24] = target: GlcNAc(b1-2)[GlcNAc(b1-4)]Man(a1-3)[GlcNAc(b1-4)][GlcNAc(b1-2)[GlcNAc(b1-6)]Man(a1-6)]Man(b1-4)GlcNAc(b1-4)[Fuc(a1-6)]GlcNAc
# Method in brief: as §1
# [25] = target: GlcNAc(b1-2)[GlcNAc(b1-6)]Man(a1-6)[GlcNAc(b1-2)Man(a1-3)]Man(b1-4)GlcNAc(b1-4)GlcNAc
# Method in brief: as §1
binder,measurement,setting,value
B1,glycan array binding signal (z-score),GalNAc(b1-6)GalNAc,-0.374
same,glycan array binding signal (z-score),GalNAc3S(b1-4)GlcNAc,-0.099
same,glycan array binding signal (z-score),GalNAc3S(b1-4)GlcNAc3S,-0.361
same,glycan array binding signal (z-score),[1],-0.178
same,glycan array binding signal (z-score),GalNAc4S6S(b1-4)GlcNAc,-0.581
same,glycan array binding signal (z-score),GalNAc6S(b1-4)GlcNAc,0.509
same,glycan array binding signal (z-score),Glc(a1-4)Glc,-0.443
same,glycan array binding signal (z-score),[2],-0.429
same,glycan array binding signal (z-score),Glc(a1-6)Glc(a1-6)Glc,0.293
same,glycan array binding signal (z-score),[3],-0.085
same,glycan array binding signal (z-score),Glc(b1-4)Glc,-0.045
same,glycan array binding signal (z-score),Glc(b1-6)Glc,-0.306
same,glycan array binding signal (z-score),GlcA(b1-3)Gal,-0.264
same,glycan array binding signal (z-score),GlcA(b1-3)GlcNAc,-0.575
same,glycan array binding signal (z-score),GlcA(b1-6)Gal,-0.259
same,glycan array binding signal (z-score),[4],-0.705
same,glycan array binding signal (z-score),[5],-0.103
same,glycan array binding signal (z-score),[6],-0.184
same,glycan array binding signal (z-score),[7],0.26
same,glycan array binding signal (z-score),[8],-0.312
same,glycan array binding signal (z-score),[9],-0.528
same,glycan array binding signal (z-score),[10],-0.674
same,glycan array binding signal (z-score),[11],-0.817
same,glycan array binding signal (z-score),[12],-0.434
same,glycan array binding signal (z-score),[13],0.82
same,glycan array binding signal (z-score),[14],1.54
same,glycan array binding signal (z-score),[15],-0.302
same,glycan array binding signal (z-score),[16],-0.125
same,glycan array binding signal (z-score),[17],-0.508
same,glycan array binding signal (z-score),[18],-0.13
same,glycan array binding signal (z-score),[19],-0.58
same,glycan array binding signal (z-score),[20],0.417
same,glycan array binding signal (z-score),[21],0.185
same,glycan array binding signal (z-score),[22],-0.221
same,glycan array binding signal (z-score),[23],-0.306
same,glycan array binding signal (z-score),[24],-0.77
same,glycan array binding signal (z-score),[25],-0.276
